The molecules below were run against PRMT5/MEP50 Complex (Homo sapiens (Human), UniProt O14744) (assay: PRMT5 inhibition based on TR-FRET assay). Conditions: 32 nM PRMT5:MEP50, 50 nM Histone-H4 peptide, 1 μM SAM.
Format: biochemical
Text: PRMT5 Inhibition Based on TR-FRET Assay:
Protein arginine methyltransferase 5 (PRMT5) is a type II arginine methyltransferase that catalyze mono- and symmetric demethylation on arginine residues of histone or non-histone proteins in presence of S-adenosylmethionine (AdoMet or SAM) a cofactor responsible for donating the methyl group. PRMT5 is reported to be overexpressed in several human cancers. To identify compounds that inhibit the PRMT5 and decrease its activity, a TR-FRET based assay has been established. Time-resolved fluorescence resonance energy transfer (TR-FRET) HTS assays are homogeneous proximity assays where the interaction of two dye-labeled binding partners is detected by the energy transfer between a donor and an acceptor dye and the subsequent light emission by the acceptor dye. PRMT5 catalyzes Histone H4 peptide which is biotin tagged to the Lysine amino acid at carboxyl end, in presence of S-adenosyl-1-methionine (SAM) to methylate the peptide. The antibody specific to mono methylated H4 peptide (H4R3) with Ig conjugate binds to the methylated peptide, indirectly binding to the Europium lanthanide. SureLight Allophycocyanin-Streptavidin binds to the biotin tag of the peptide, therefore accepting the energy transferred from the Europium lanthanide. This energy transfer between Europium to SureLight Allophycocyanin is a direct measure of the activity/inhibition of the PRMT5 enzyme.
Assay buffer: 20 mM BICINE (pH 7.6), 25 mM NaCl, 2 mM DTT, 0.01% Tween-20 and 0.01% BSA.
The compound dilutions were prepared as 7.5% DMSO stock solutions in assay buffer. To 2 μL (7.5×) of test compound, 5 μL of PRMT5 enzyme prepared in assay buffer (Final concentration of 32 nM in 15 μL reaction volume) was added and allowed for 30 minutes pre-incubation time in a white polystyrene 384-well plate at room temperature. […] The plates were then read on Victor-3 with Excitation at 340 nm and Emissions collected at 615 and 665 nm in TR-FRET protocol. […]

Sequence of UniProt O14744 (O14744 whole entry): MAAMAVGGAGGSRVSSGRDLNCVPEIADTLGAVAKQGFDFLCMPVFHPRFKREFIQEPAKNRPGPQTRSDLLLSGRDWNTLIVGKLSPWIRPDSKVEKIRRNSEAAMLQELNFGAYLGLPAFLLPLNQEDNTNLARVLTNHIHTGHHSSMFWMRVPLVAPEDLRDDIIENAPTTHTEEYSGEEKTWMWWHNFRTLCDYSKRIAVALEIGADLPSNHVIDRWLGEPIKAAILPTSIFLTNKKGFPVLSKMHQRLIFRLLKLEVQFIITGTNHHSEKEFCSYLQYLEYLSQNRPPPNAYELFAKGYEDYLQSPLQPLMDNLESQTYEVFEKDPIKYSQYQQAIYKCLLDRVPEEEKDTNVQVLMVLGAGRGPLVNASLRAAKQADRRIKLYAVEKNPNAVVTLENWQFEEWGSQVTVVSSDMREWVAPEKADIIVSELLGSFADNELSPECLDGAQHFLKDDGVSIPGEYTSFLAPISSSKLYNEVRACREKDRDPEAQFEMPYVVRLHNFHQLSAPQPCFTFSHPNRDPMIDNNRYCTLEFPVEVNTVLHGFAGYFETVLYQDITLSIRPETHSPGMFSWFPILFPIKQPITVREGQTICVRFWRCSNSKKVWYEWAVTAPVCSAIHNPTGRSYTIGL
Sequence of UniProt O14744 (Q9BQA1 whole entry partner): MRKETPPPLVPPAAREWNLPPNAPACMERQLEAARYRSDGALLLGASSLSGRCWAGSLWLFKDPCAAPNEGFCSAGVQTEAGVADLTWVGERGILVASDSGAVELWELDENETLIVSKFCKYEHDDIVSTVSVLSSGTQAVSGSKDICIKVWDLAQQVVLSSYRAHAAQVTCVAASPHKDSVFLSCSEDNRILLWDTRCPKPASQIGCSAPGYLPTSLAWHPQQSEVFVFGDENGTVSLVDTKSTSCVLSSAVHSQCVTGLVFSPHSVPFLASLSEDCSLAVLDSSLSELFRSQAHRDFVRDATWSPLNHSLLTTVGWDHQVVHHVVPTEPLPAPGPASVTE

| SMILES | IC50 |
| --- | --- |
| Cc1ccc(CN2CC3(CCCC3)N(CC(O)CN3CCc4ccccc4C3)C2=O)cn1 (stereo not drawn) [Example 8, 1-(3-(3,4-dihydroisoquinolin-2(1H)-yl)-2-hydroxypropyl)-3-((6-methylpyridin-3-yl)methyl)-1,3-diazaspiro[4.4]nonan-2-one] | 0.21 µM |
| Cn1nccc1CN1CCN(CC(O)CN2CCc3ccccc3C2)C1=O (stereo not drawn) [Example 4, 1-(3-(3,4-dihydroisoquinolin-2(1H)-yl)-2-hydroxypropyl)-3-((1-methyl-1H-pyrazol-5-yl)methyl)imidazolidin-2-one] | 0.45 µM |
| Cc1ccc(CN2CC(C)(C)N(CC(O)CN3CCc4ccccc4C3)C2=O)cn1 (stereo not drawn) [Example 7, 3-(3-(3,4-dihydroisoquinolin-2(1H)-yl)-2-hydroxypropyl)-4,4-dimethyl-1-((6-methylpyridin-3-yl)methyl)imidazolidin-2-one] | 0.52 µM |

From patent US11365205B2 (Aurigene Discovery Technologies Limited, priority 2018, dated 2022)
